Measured values taken from PubChem BioAssay AID2060512 (Molecular Pharmacology Branch, DTP, NCI, 2025).
Certain results were filed several times, with different values. The other results are left out here. There may be further records. The values listed for one entry are repeated measurements in other runs, samples, wells, individuals or studies. Counts like (3×) stand for listed records that agree.

System: 186277-243-T-J2-PDC complex spheroid viability
Assay: Anticancer human tumor 186277-243-T-J2-PDC patient-derived colon adenocarcinoma cell line growth inhibition [GQUAD]
Conditions: stronger effect = lower value
Source text: DNA G-quadruplex Stabilizer Agents in Combinations in Complex Spheroids
A high-throughput screen of multi-cell type tumor spheroids was designed to identify active combinations of DNA G-quadruplex stabilizer agents and targeted small molecules. Complex spheroids include a stromal component modeled by human endothelial cells (HUVEC) and fibroblasts modeled by human mesenchymal stem cells (MSCs). The concentration ranges selected for each drug and investigational agent were based upon clinically achievable concentrations if the clinical Cmax of the agent was known.
Compounds. The drugs and investigational agents: pidnarulex (CX-5461; NSC782164), APTO-253 (NSC789042), BRACO-19 (NSC847499), peposertib (NSC802822), ceralasertib (NSC780249), elimusertib (NSC800525), camonsertib (NSC841442), AZD-1390 (NSC803789), olaparib (NSC753686), talazoparib (NSC767125), ART-558 (NSC835418), sotorasib (NSC818433), MRTX-1133 (NSC836407), SN-38 (NSC673596), topotecan (NSC609699), etoposide (NSC141540), doxorubicin (NSC123127), gemcitabine (NSC613327), 5-fluorouracil (NSC19893), paclitaxel (NSC125973), vemurafenib (NSC761431), panobinostat (NSC761190), R-306465 (JNJ-16241199; NSC773264), adavosertib (NSC754352), TP-3654 (NSC805149), carboplatin (NSC241240), KSQ-4279 (NSC840948), and staurosporine (NSC755774) were obtained from the National Cancer Institute (NCI) Developmental Therapeutics Program Chemical Repository (34). The FDA-approved anticancer drug set is available from the NCI Developmental Therapeutics Program. […] The stock solutions were prepared in dimethyl sulfoxide (DMSO, Sigma-Aldrich, St. Louis, MO, cat. D2650) at 800-fold the tested concentration and stored at -70 degrees C prior to their use. All drugs and investigational agents were tested over a range starting from a high concentration at or near the clinical Cmax and decreasing in half-log increments. If the clinical Cmax for an agent had not been determined, the highest concentration tested was 10 microM.
2.3 Cell Culture. All cells were maintained in an incubator at 37 degrees C and 5% CO2 with 95% humidity. The PDC lines were cultured according to standard operating procedures established by the NCI PDMR. All PDCs were thawed and cultured in Matrigel-coated flasks prepared with a working solution of 1X Ham's F-12 nutrient mix, without supplementation (Invitrogen, cat. 11765054), 100 U/mL penicillin-streptomycin (Invitrogen, cat. 15140122), and 2.5% Matrigel (Corning Inc., cat. 354248) for the first three passages. […]
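Also: spheroids exposed to drugs for 7 days; 100% = DMSO vehicle control viability.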

With Cc1[nH]c2ccc(F)cc2c1-c1nc2c3cccnc3c3ncccc3c2[nH]1 the viability, T/C (compound alone 0.316 µM) was 98.1, 108 (2×), 91.6, 97, 95.2, 86.1, 93.8, 114, 104, 113, 106%.
With Cc1cnc(CNC(=O)c2c(=O)c3ccc(N4CCCN(C)CC4)nc3n3c2sc2ccccc23)cn1 the viability, T/C (compound alone 0.1 µM) was 91, 85.9, 92.6, 96.4, 81.1, 87.3, 75.1, 102, 86, 77.5, 90.1, 79.2%.
CN(C)c1ccc(Nc2c3ccc(NC(=O)CCN4CCCC4)cc3nc3cc(NC(=O)CCN4CCCC4)ccc23)cc1 was tested, and the viability, T/C (compound alone 0.0316 µM) was 100, 97.5, 96, 94.8, 83.2, 99.3, 101, 85, 115, 106, 103, 98.2% and the viability, T/C (compound alone 3.16 µM) was 110 (2×), 79.4, 89.2, 93.9, 96, 95.6, 99.9, 90.6, 104, 96.2, 95.7%.
